# Reference: paper PMC4336329 (PLoS ONE, 2015)
# In all, about 310,000 compounds went through this assay and about 14,000 (4.5%) showed an effect of 50% or more. The effect is printed as a negative number. The list shows a part of the results.
# Target: human ether-à-go-go-related gene (hERG) potassium channel (human, UniProt Q12809)
# Assay: primary screen, population patch clamp on CHO cells stably expressing hERG
# 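Also: peak tail current of the secondary pulse compared with the same well before compound.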
# Sequence of human ether-à-go-go-related gene (hERG) potassium channel (Q12809 whole entry, looked up): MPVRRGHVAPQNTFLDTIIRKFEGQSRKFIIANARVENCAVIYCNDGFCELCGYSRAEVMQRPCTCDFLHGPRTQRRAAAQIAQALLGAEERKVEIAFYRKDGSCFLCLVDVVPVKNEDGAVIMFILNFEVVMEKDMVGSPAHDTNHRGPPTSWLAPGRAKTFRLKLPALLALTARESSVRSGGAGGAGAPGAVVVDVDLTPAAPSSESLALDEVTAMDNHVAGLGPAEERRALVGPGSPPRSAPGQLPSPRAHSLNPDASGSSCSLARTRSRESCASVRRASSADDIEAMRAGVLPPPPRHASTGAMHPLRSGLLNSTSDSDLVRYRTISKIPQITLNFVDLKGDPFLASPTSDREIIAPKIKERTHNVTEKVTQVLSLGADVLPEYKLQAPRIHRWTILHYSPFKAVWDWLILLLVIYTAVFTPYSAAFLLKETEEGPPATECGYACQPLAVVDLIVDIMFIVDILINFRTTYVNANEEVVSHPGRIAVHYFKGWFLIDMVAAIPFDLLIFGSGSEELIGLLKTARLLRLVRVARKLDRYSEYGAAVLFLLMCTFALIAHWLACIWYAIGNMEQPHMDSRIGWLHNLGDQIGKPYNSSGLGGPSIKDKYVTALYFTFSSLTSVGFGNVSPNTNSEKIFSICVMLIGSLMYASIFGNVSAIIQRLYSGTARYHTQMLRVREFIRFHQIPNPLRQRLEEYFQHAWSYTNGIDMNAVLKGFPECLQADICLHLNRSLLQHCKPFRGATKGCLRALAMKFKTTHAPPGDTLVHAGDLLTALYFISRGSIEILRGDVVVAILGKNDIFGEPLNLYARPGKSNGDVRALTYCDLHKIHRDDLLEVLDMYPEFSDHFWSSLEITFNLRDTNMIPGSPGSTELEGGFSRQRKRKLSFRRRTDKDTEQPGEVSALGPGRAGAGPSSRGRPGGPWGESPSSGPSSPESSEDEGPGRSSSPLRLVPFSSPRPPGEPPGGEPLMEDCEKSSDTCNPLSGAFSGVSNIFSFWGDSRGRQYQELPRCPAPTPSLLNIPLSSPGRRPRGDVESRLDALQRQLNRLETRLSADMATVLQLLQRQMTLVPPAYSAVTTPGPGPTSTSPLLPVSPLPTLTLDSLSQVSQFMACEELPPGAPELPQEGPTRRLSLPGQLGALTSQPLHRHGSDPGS
row,Structure (SMILES),"hERG current change (%, negative = inhibition) at 10uM"
1,Cc1ccc(C(=O)OCC(=O)N2CCOCC2)cc1,15.6%
2,O=C1/C(=C\c2ccncc2)SC(=S)N1C1CCCCC1,-0.179%
3,COc1cc(-c2nnc3sc(-c4cccs4)nn23)cc(OC)c1OC,3.99%
4,O=C(CSc1nc(O)c(-c2ccccc2)c(=O)[nH]1)N1CCOCC1,1.52%
5,COc1ccc(NC(=O)C(=O)NNC(=O)C(C)Oc2ccc(Cl)cc2Cl)cc1 (centres unmarked),19%
6,CC(=O)c1ccccc1NC(=O)COC(=O)CCCN1C(=O)c2cccc3cccc(c23)C1=O,7.06%
7,COc1cc(/C=N/NS(=O)(=O)c2ccc(C)cc2)ccc1OCc1cccc(C(=O)O)c1,21.2%
8,CN(C)S(=O)(=O)n1cc(/C=C(\NC(=O)c2ccccc2Cl)C(=O)NCCCn2ccnc2)c2ccccc21,12.4%
9,CC(C)n1c(C(F)(F)F)nc2cc(C(=O)N3CCC(O)CC3)ccc21,17.2%
10,O=C(NC1CCCCC1)C(c1ccc(F)cc1)N(C(=O)c1cccs1)c1ccc2c(c1)OCO2 (centres unmarked),-6.28%
11,O=C1CC(c2cc(-c3ccccc3)no2)C1,-9.96%
12,CC(OC(=O)c1ccc2ccccc2c1)C(=O)N(C)Cc1ccccc1 (centres unmarked),-37.7%
13,CC(=O)Nc1ccc(NC(=O)CSc2nnc(C)c(=O)[nH]2)cc1,21.9%
14,CCc1cc(CNC(=O)CC2C(=O)NCCN2CC2CCCCC2)on1 (centres unmarked),-16.3%
15,Cc1cc2oc(=O)sc2cc1NS(=O)(=O)c1cccc2cccnc12,9.71%
16,COc1cc(C2c3c(oc4ccccc4c3=O)C(=O)N2Cc2ccco2)ccc1O (centres unmarked),-10.9%
17,C/C(N)=C(/C#N)C(=O)CSc1nnc(-c2ccccc2Br)o1,16.6%
18,CC(=O)c1cccc(NC(=O)C(C)OC(=O)CCn2c(C)csc2=O)c1 (centres unmarked),12.1%
19,O=C(NCC(c1ccco1)N1CCCC1)c1cc2ccccc2s1 (centres unmarked),-34.1%
20,COc1ccc(NC(=O)CN(C)S(=O)(=O)c2ccc3c(c2)n(C)c(=O)c(=O)n3C)cc1,14%
21,CCC(c1nnc(SCC(=O)Nc2nnc(-c3ccccc3)o2)o1)N(C)C (centres unmarked),14%
22,CCc1cccc2c(C(=O)COC(=O)c3cccc(S(=O)(=O)N(C)C4CCCCC4)c3)c[nH]c12,0.794%

row,Structure (SMILES),"hERG current change (%, negative = inhibition) at 10uM"
1,Cc1c(C(=O)N2CCN(Cc3ccc4c(c3)OCO4)CC2)sc2ncnc(N3CCN(c4ccccc4F)CC3)c12,-1.46%
2,CCOC(=O)NC(=O)C(=CNc1ccccc1OC)C(=O)NC(=O)OCC,2.69%
3,COc1ccc(NS(=O)(=O)c2cc(Cl)ccc2Cl)cc1S(=O)(=O)N1CCCCC1,0.782%
4,CC1=NN(c2nc(-c3ccc(C)cc3)cs2)C(=O)C1N=Nc1ccc(C(N)=O)cc1 (centres unmarked),28.4%
5,COc1ccc(CNC(=O)c2ccc(Cl)c(S(=O)(=O)N3CCOCC3)c2)cc1OC,-23.2%
6,COc1ccc(CNCc2ccc(C(F)(F)F)cc2)cc1OC.O=C(O)C(=O)O,6.54%
7,CC(=O)c1cc(C#N)c(Oc2ccc(Cl)cc2Cl)nc1C,24.2%
8,CCn1nc(NC(=O)c2ccccn2)c2cc3cc(C)ccc3nc21,7.78%
9,CCOC(=O)c1c(C)c2c(n1C)CCC/C2=N\O,4.79%
10,Oc1ccc(Br)cc1-c1n[nH]c(=S)n1Cc1ccccc1,-0.0951%
11,Cc1cc(Cl)nc(SCC(=O)c2ccccc2)n1,3.05%
12,CCC(C(=O)Nc1cccc(OC)c1)n1nc(C)c2c(C)n(-c3ccccc3)nc2c1=O (centres unmarked),-7.35%
13,CCOC(=O)c1c(-c2ccc(C)o2)csc1NC(=O)CN1CCOCC1,2.47%
14,CCOC(=O)N1CCC(NCCNC(=O)c2ccc(F)cc2)CC1.Cl,-25.2%
15,CCc1c(C)nc(N2CCN(Cc3ccccc3)CC2)[nH]c1=O,8.65%
16,CC1(C)Oc2ccc3ccc(=O)oc3c2/C(=C/NCCO)C1=O,5.11%
17,Cc1ccc(C(=O)O/N=C(\N)c2ccc(Br)cc2)cc1C,20.9%
18,CCOC(=O)N1CCN(C(=O)CCSc2ccccc2)CC1,-4.37%
19,CCOc1ccc(CCNC(=O)COC(=O)c2cccc(S(=O)(=O)N3CCOCC3)c2)cc1OCC,-8.57%
20,COc1ccccc1NC(=O)C(C)OC(=O)c1cc2ccccc2[nH]1 (centres unmarked),-5.21%
21,Cc1cc(CNC(=O)C2CCC(=O)N(CCc3cccc(F)c3)C2)on1 (centres unmarked),12.3%
22,O=C(NNC(=O)c1cccnc1SCc1cccc([N+](=O)[O-])c1)c1ccccn1,-3.49%
